Source: PubChem BioAssay AID1476 (National Center for Advancing Translational Sciences (NCATS), 2009)
Screen size: about 200,000 compounds; about 4,500 (2.2%) were called active. Inconclusive results, whose numbers are uncertain, are shown with a selection of clear calls. The call rests on the fitted dose curve; in most records, active means well fitted inhibition curve with a large enough effect; inconclusive means small, poorly fitted or top-dose-only effect, or effect the other way; inactive means flat fitted curve, though single readings scatter. Potencies of inconclusive entries are doubtful fits and often do not repeat.

These molecules were tested against Cruzipain (Trypanosoma cruzi) (UniProt P25779) (assay: qHTS Assay for Promiscuous and Specific Inhibitors of Cruzain (without detergent)). Conditions: purified cruzain, Z-FR-AMC fluorescence, no detergent.
Sequence of UniProt P25779 (P25779 whole entry, looked up): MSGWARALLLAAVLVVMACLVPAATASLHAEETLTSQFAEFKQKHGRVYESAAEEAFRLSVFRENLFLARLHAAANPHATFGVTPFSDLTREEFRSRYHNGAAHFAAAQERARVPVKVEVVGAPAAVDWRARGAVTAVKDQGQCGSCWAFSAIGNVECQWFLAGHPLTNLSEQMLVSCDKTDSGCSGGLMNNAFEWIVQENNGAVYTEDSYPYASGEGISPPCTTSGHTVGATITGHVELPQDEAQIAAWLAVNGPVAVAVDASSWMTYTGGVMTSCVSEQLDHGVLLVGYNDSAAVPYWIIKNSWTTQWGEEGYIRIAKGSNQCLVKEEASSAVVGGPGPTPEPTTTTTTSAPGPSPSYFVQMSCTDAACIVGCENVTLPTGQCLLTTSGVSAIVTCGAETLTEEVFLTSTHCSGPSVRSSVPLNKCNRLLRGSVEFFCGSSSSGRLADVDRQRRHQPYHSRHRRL
Outline: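 Detergent-free condition (0.00005% Triton X-100) in acetate buffer pH 5.5 with DTT. 1.5 nM enzyme and compound were pre-mixed 15 min, then 2 uM Z-FR-AMC substrate added; reaction progress from fluorescence change between first and third reads (60 s).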
Further: nearly all actives have a fitted effect of over 40% in size.
Potency means the concentration at half of the fitted maximal effect; tags describe the fitted curve by direction and shape.
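Wherever max response, negative = inhibition is given: plate controls were enzyme without inhibitor for no effect and buffer without enzyme for full effect.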

Row | SMILES | Potency | max response, negative = inhibition
1 | O=C1NC(=O)/C(=C\c2ccccc2Oc2ccc(F)c(F)c2)S1 | active: 25.1 µM | 
2 | Cc1ccc(CNC(=O)c2ccc3c(c2)N(Cc2ccccc2Cl)C(=O)CS3)cc1 |  | inactive: 11.5%
3 | CCOC(=O)c1[nH]c(C)c(CCC(=O)Nc2ccccc2C(=O)OC)c1C |  | inactive: 9.44%
4 | CCOc1cc(S(=O)(=O)NCC2OCCc3ccccc32)c(OCC)cc1-n1cnnn1 (stereo unspecified) | inconclusive: 31.6 µM [activator, single point] | 
5 | CCOP(=O)(OCC)c1nc(-c2ccccc2)oc1NCc1ccccc1 | inconclusive: 39.8 µM [activator, single point] | 
6 | Cc1cc(OCC(=O)NC(Cc2c[nH]c3ccccc23)C(=O)O)ccc1Cl (stereo unspecified) |  | inactive: 28%
7 | CCOC(=O)c1c(S(=O)(=O)NCC(=O)Nc2cccc(CC)c2)c(C)n(C)c1C |  | inactive: 5.21%
8 | CCc1ccc(NC(=O)CSc2nc(-c3ccccc3)c(C#N)c(=O)[nH]2)cc1 | inconclusive: 39.8 µM [activator, single point] | 
9 | Clc1cccc(-c2csc(-c3nc(-c4ccc(Br)s4)cs3)n2)c1 |  | inactive: 11.9%
10 | COC(=O)c1ccc2nc(Nc3nc4ccc(F)cc4s3)sc2c1 | inconclusive: 12.6 µM [activator, partial curve, poor fit] | 
11 | COc1ccc(N2CCCn3c2nc2c3c(=O)n(Cc3ccc(F)cc3)c(=O)n2C)c(OC)c1 | inconclusive: 39.8 µM [activator, single point] | 
12 | COc1ccc(C=C(c2nc3ccccc3s2)c2nc3ccccc3s2)cc1O | inconclusive: 39.8 µM [inhibitor, single point] | 
13 | CCOC(=O)c1c(NC(=O)CC2Sc3ccc(C(F)(F)F)cc3NC2=O)sc(C)c1C (stereo unspecified) | inconclusive: 39.8 µM [inhibitor, single point] | 
14 | O=C(C1CCCO1)N1CCN(S(=O)(=O)c2cccc3nsnc23)CC1 (stereo unspecified) |  | inactive: -1.4%
15 | c1ccc(Cn2nnc3c(Nc4ccc5c(c4)OCO5)nc(C4CC4)nc32)cc1 | active: 15.8 µM | 
16 | CCCCn1c(SCC(=O)Nc2ccc3c(c2)CCC3)nc2ccccc2c1=O |  | inactive: -8.36%
17 | CC1=CC(C)C(C(=O)O)C(C(=O)O)C1 (stereo unspecified) |  | inactive: 8.27%
18 | O=C(CC1N=C2c3ccccc3N=C(SCc3ccc(F)cc3)N2C1=O)NCc1cccs1 (stereo unspecified) | inconclusive: 31.6 µM [activator, single point] | 
19 | COC(=O)c1c(-c2ccccc2)csc1NC1=NS(=O)(=O)c2ccccc21 | inconclusive: 39.8 µM [inhibitor, single point] | 
20 | CC(=O)Nc1ccccc1-c1nc2ccc(C(=O)N3CCN(c4cccc(C)c4)C(C)C3)cc2[nH]c1=O (stereo unspecified) | inconclusive: 25.1 µM [activator, single point] | 
21 | Cc1nn(Cc2ccc(Cl)cc2)c(C)c1NC(=O)c1noc2c1CCc1ccccc1-2 | inconclusive: 39.8 µM [inhibitor, single point] | 
22 | COc1ccccc1N1CCN(/N=C/c2c(C)nn(-c3ccccc3)c2C)CC1 | inconclusive: 39.8 µM [activator, single point] | 

Row | SMILES | Potency | max response, negative = inhibition
23 | Cc1cccc(-c2nc(SCC(=O)Nc3cccc(C(F)(F)F)c3)n3[nH]c(=O)cc3n2)c1 | inconclusive: 3.98 µM [activator, single point] | 
24 | Cc1ccc(OCc2nc(-c3ccc(C(=O)N4CCN(c5ccc(Cl)cc5)CC4)cc3)oc2C)cc1 |  | inactive: -8.41%
25 | Nc1nc(N)c2[nH]cnc2n1 (tested in a mixture with another compound) |  | inactive: 9.28%
26 | COc1ccccc1C(=O)NC1(C(F)(F)F)C(=O)Nc2c1c(=O)[nH]c(=O)n2CCc1ccccc1 (stereo unspecified) |  | inactive: 3.89%
27 | CC(=O)c1cccc(Nc2nc(-c3cccc([N+](=O)[O-])c3)cs2)c1 | inconclusive: 39.8 µM [inhibitor, single point] | 
28 | Cc1cccc(/C=C\c2nc3ccccc3c(=O)[nH]2)c1 | inconclusive: 6.31 µM [inhibitor, single point] | 
29 | COc1ccc(CNC(=O)c2nnn(CC(=O)Nc3cc(C)cc(C)c3)c2N)cc1 | inconclusive: 12.6 µM [inhibitor, partial curve, poor fit] | 
30 | O=C(Nc1ccc(N2CCN(CCOc3ccc(Cl)cc3)CC2)c(C(=O)O)c1)c1ccc(F)cc1 | inconclusive: 39.8 µM [inhibitor, single point] | 
31 | CCCn1c(SCC(O)c2cccc(OC)c2)nc2ccccc21 (stereo unspecified) |  | inactive: 3.02%
32 | CCCC(O)c1nc2ccccc2n1CCCCOc1ccc(OC)cc1 (stereo unspecified) |  | inactive: 1.89%
33 | Cc1cc(C)cc(NC(=O)CSc2nncn3c2cc2occc23)c1 |  | inactive: -1.49%
34 | CCOC(=O)c1c(NC(=O)c2ccc(Br)o2)sc2c1CCCC2 |  | inactive: -20.9%
35 | COc1ccc(CNC(=O)C2CCN(c3nc4ccc(C)cc4[nH]3)CC2)cc1 |  | inactive: -13%
36 | CCn1c2c(c(=O)n3ncc(C(=O)Nc4cccc(Cl)c4C)c13)CN(Cc1ccc(OC)cc1)CC2 |  | inactive: 17.8%
37 | Cc1ccccc1OCC(O)Cn1c(NCc2ccco2)nc2c1c(=O)n(C)c(=O)n2C (stereo unspecified) | inconclusive: 39.8 µM [activator, single point] | 
38 | Cc1onc(-c2ccccc2)c1C(=O)Nc1nc(-c2ccccc2)cs1 | inconclusive: 39.8 µM [inhibitor, single point] | 
39 | Cc1ccc(C)c(NC(=O)C2CC3c4ccccc4C2c2ccccc23)c1 (stereo unspecified) | inconclusive: 39.8 µM [inhibitor, single point] | 
40 | COc1cc(C)c(CC/C(C)=C/C=C/C(C)=O)c(C)c1C |  | inactive: 10.1%
41 | CCc1ccccc1NC(=O)Cn1c(=O)nc(-c2ccccc2)c2ccccc21 |  | inactive: -7.13%
42 | CCN(CC)C(=O)CSc1nnc2sc3ccccc3n12 |  | inactive: 12.8%
43 | O=C(CCNS(=O)(=O)c1ccc2c(c1)CCN2C(=O)C1CC1)N1CCN(c2ccc(F)cc2)CC1 |  | inactive: 2.89%
44 | COc1cc2c(cc1NC(=O)CN(C)Cc1nc3ccccc3c(=O)[nH]1)oc1ccccc12 | inconclusive: 31.6 µM [activator, single point] | 

Row | SMILES | Potency | max response, negative = inhibition
45 | COc1ccc(CCNC(=O)CCCCn2c(=O)c3ccccc3n(CC(=O)Nc3ccccc3C)c2=O)cc1OC |  | inactive: -7.76%
46 | CCCOc1cccc(C(=O)Nc2ccc(-c3nc4ccccc4s3)c(Cl)c2)c1 | inconclusive: 15.8 µM [inhibitor, partial curve, poor fit] | 
47 | CCc1ccc(CSc2nc(-c3ccc(OC)cc3)nc3c2Cc2c(CO)cnc(C)c2O3)cc1 |  | inactive: 9.99%
48 | O=c1oc2c(CN3CCOCC3)c(O)ccc2cc1-c1ccc(Cl)cc1 | inconclusive: 0.316 µM [activator, partial curve] | 
49 | Cc1ccc(C)c(-c2cc(C(=O)Nc3sc(C)c(C)c3C(N)=O)c3ccccc3n2)c1 | inconclusive: 39.8 µM [inhibitor, single point] | 
50 | CC(NC(=O)c1ccc2c(c1)N(Cc1ccc(Cl)cc1)C(=O)c1ccccc1S2(=O)=O)c1ccccc1 (stereo unspecified) | inconclusive: 20 µM [inhibitor, partial curve, poor fit] | 
51 | COC(=O)[C@@]1(Cc2ccc(OC)cc2)[C@H]2c3cc(C(=O)N(C)C)n(Cc4ccc(C)c(F)c4F)c3C[C@H]2CN1C(=O)c1ccccc1 | inconclusive: 12.6 µM [activator, partial curve] | 
52 | COC(=O)c1c(N)n(Cc2ccc(OC)cc2)c2nc3ccccc3nc12 | inconclusive: 15.8 µM [activator, partial curve] | 
53 | Cc1ccc(-n2c(C)cc(C(=O)Cn3nc(C(=O)O)c4ccccc4c3=O)c2C)cc1 | inconclusive: 25.1 µM [inhibitor, single point] | 
54 | Cn1c(CC(=O)Nc2ccc(Cl)c(Cl)c2)nnc1SCC(=O)N1CCN(c2ccccc2)CC1 | inconclusive: 31.6 µM [activator, single point] | 
55 | CCOC(=O)C1=C(C)N=c2s/c(=C/c3ccccc3)c(=O)n2C1c1ccc(OC)c(OC)c1 (stereo unspecified) | inconclusive: 20 µM [activator, partial curve] | 
56 | COc1ccc(C2NC(=O)NC(c3ccccc3)=C2c2nc3ccccc3s2)cc1 (stereo unspecified) | inconclusive: 39.8 µM [inhibitor, single point] | 
57 | Nc1ccc2cc3ccccc3cc2c1 | active: 12.6 µM | 
58 | COc1ccc(Cl)cc1NC(=O)CSc1ccc(-c2sc(C)nc2C)nn1 |  | inactive: -3.44%
59 | COC(=O)c1sccc1NC(=O)CSc1nnnn1-c1ccccc1C |  | inactive: -1.87%
60 | CCN(CC)S(=O)(=O)c1ccc(NC(=O)CCc2c(C)nc3cc(-c4ccc(Cl)cc4)nn3c2C)cc1 | inconclusive: 39.8 µM [inhibitor, single point] | 
61 | Cc1ccc(C2CC(C(F)(F)F)n3nc(C(=O)NCC4CCCO4)cc3N2)cc1 (stereo unspecified) | inconclusive: 25.1 µM [activator, single point] | 
62 | COc1ccccc1-n1c(-c2ccoc2)nc2ccccc2c1=O | inconclusive: 1.58 µM [inhibitor, partial curve] | 
63 | COc1ccc(-c2[nH]c3ccccc3c2SCCNC(=O)c2ccccc2)cc1 | inconclusive: 39.8 µM [inhibitor, single point] | 
64 | CCN(C(=O)CSc1nc2ccccc2n1CC(=O)Nc1ccccc1C)c1ccccc1 |  | inactive: -1.76%
65 | Cc1cccc2c3c(ccc12)C1=C(C(=O)C3=O)C(C)CO1 (stereo unspecified) | inconclusive: 39.8 µM [activator, single point] | 
66 | CCOC(=O)C1=C(C)NC(C)=C(C(=O)OCC)C1C(=O)OCC(=O)N1CCC(C)CC1 | inconclusive: 20 µM [activator, partial curve] | 
